Experimental data as given in the supplement of paper PMC4967469.
IC50 is the fitted dose that halves viability relative to control wells, and lower means more sensitive; a fit beyond the top or the lowest dose is shown as a bound at that dose. AUC is the area under the same curve over the 256-fold range up to the top dose, as a fraction; the more sensitive the line, the further below 1. For part of these data: Any top dose called inferred was calculated from the reported fits. For part of these data: Where an entry number is given, a second screen of the drug exists; the two often differ.

Tests used:
Assay in all cases: Viability of human cancer cell lines after 72 h of drug (GDSC screen)
AUY922 = compound: CCNC(=O)c1noc(-c2cc(C(C)C)c(O)cc2O)c1-c1ccc(CN2CCOCC2)cc1 [AUY922]; conditions: top dose 0.256 µM; top dose inferred
Experimental: (§1)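 Human cancer cell lines in 384-well plates, medium with 10% serum, drug for 72 h over a 256-fold dose range (nine 2-fold or five 4-fold steps up to the top dose). Adherent lines were fixed and stained with the nucleic acid dye Syto60, suspension lines read with resazurin; signal relative to control wells, capped at 0 and 100%. One two-parameter sigmoid per drug and line, fitted in a mixed model over all curves with the slope shared within a line.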

LFM-A13 = compound: C/C(O)=C(\C#N)C(=O)Nc1cc(Br)ccc1Br [LFM-A13]; conditions: top dose 16 µM; top dose inferred
Experimental: as §1

KIN001-270 = compound: Cc1ccc(Nc2cc(-c3cccc(N4C(=O)c5ccccc5C4=O)c3)ncn2)cc1NS(C)(=O)=O [KIN001-270]; conditions: top dose 20 µM; top dose inferred
Experimental: as §1

Gemcitabine = compound: Nc1ccn([C@@H]2O[C@H](CO)[C@@H](O)C2(F)F)c(=O)n1 [Gemcitabine]; conditions: top dose 1.024 µM
Experimental: as §1

T0901317 = compound: O=S(=O)(c1ccccc1)N(CC(F)(F)F)c1ccc(C(O)(C(F)(F)F)C(F)(F)F)cc1 [T0901317]; conditions: top dose 10.24 µM; top dose inferred
Experimental: as §1

MP470 = compound: S=C(NCc1ccc2c(c1)OCO2)N1CCN(c2ncnc3c2oc2ccccc23)CC1 [MP470]; conditions: top dose 20 µM; top dose inferred
Experimental: as §1

TW-37 = compound: CC(C)c1ccccc1Cc1cc(C(=O)Nc2ccc(S(=O)(=O)c3ccccc3C(C)(C)C)cc2)c(O)c(O)c1O [TW-37]; conditions: top dose 5 µM
Experimental: as §1

Bicalutamide = compound: CC(O)(CS(=O)(=O)c1ccc(F)cc1)C(=O)Nc1ccc(C#N)c(C(F)(F)F)c1 [Bicalutamide]; conditions: top dose inferred
Experimental: as §1

[1] = top dose 1.024 µM, screen: GDSC drug entry 150
[2] = top dose 10 µM, screen: GDSC drug entry 1502

Cell Line	AUC (AUY922)	AUC (LFM-A13)	IC50 (LFM-A13)	AUC (KIN001-270)	IC50 (KIN001-270)	AUC (Gemcitabine)	IC50 (Gemcitabine)	AUC (T0901317)	IC50 (T0901317)	AUC (MP470)	IC50 (MP470)	AUC (TW-37)	IC50 (TW-37)	AUC (Bicalutamide; [1])	IC50 (Bicalutamide; [1])	AUC (Bicalutamide; [2])	IC50 (Bicalutamide; [2])	IC50 (AUY922)
HSC-3 (head and neck, adherent)	0.347	0.989	> 16000 nM	0.986	> 20000 nM	0.197	9.68 nM	0.985	> 10200 nM	0.971	> 20000 nM	0.51	332 nM	0.99	> 1020 nM	0.894	8990 nM	
NCI-H2085 (lung adenocarcinoma, adherent)	0.546	0.963	> 16000 nM	0.952	> 20000 nM	0.751	363 nM	0.979	> 10200 nM	0.982	> 20000 nM	0.845	4060 nM	0.986	> 1020 nM	0.984	> 10000 nM	21.5 nM
NCI-H2170 (lung squamous cell carcinoma, adherent)	0.725	0.971	> 16000 nM	0.982	> 20000 nM	0.198	7.68 nM	0.983	> 10200 nM	0.94	> 20000 nM	0.67	954 nM	0.987	> 1020 nM	0.982	> 10000 nM	72.2 nM
HLE (liver, adherent)	0.483	0.971	> 16000 nM	0.945	> 20000 nM	0.145	5.52 nM	0.989	> 10200 nM	0.878	18300 nM	0.436	211 nM	0.981	> 1020 nM	0.987	> 10000 nM	14.4 nM
201T (lung adenocarcinoma, adherent)	0.411	0.937	> 16000 nM	0.981	> 20000 nM	0.818	774 nM	0.949	> 10200 nM	0.964	> 20000 nM	0.657	960 nM	0.978	> 1020 nM			8.56 nM
EN (endometrium, adherent)	0.884	0.977	> 16000 nM	0.944	> 20000 nM	0.833	922 nM	0.983	> 10200 nM	0.95	> 20000 nM	0.609	678 nM	0.979	> 1020 nM	0.98	> 10000 nM	> 256 nM
OVCAR-5 (ovary, adherent)	0.555	0.954	> 16000 nM	0.979	> 20000 nM	0.428	38.9 nM	0.982	> 10200 nM	0.982	> 20000 nM	0.615	691 nM	0.981	> 1020 nM	0.959	> 10000 nM	23.3 nM
